In all, about 110,000 compounds were measured (“z-score”: median about -0.1, highest 2% from about 2 on). Some of the results follow.
These molecules were tested against Metabotropic glutamate receptor 8 (Rattus norvegicus) (UniProt P70579) (assay: mGluR8 Gi/Go-coupled signaling modulation – cell-based, rat, thallium flux, HTS, primary screen (AID 488969)). Conditions: HEK293 rat mGluR8, GIRK (G protein-gated inwardly rectifying potassium channel) thallium flux, FluoZin2; at 10 µM; stronger effect = higher value; submaximal glutamate (EC20) added with thallium.
Chain of UniProt P70579 (P70579 whole entry, looked up): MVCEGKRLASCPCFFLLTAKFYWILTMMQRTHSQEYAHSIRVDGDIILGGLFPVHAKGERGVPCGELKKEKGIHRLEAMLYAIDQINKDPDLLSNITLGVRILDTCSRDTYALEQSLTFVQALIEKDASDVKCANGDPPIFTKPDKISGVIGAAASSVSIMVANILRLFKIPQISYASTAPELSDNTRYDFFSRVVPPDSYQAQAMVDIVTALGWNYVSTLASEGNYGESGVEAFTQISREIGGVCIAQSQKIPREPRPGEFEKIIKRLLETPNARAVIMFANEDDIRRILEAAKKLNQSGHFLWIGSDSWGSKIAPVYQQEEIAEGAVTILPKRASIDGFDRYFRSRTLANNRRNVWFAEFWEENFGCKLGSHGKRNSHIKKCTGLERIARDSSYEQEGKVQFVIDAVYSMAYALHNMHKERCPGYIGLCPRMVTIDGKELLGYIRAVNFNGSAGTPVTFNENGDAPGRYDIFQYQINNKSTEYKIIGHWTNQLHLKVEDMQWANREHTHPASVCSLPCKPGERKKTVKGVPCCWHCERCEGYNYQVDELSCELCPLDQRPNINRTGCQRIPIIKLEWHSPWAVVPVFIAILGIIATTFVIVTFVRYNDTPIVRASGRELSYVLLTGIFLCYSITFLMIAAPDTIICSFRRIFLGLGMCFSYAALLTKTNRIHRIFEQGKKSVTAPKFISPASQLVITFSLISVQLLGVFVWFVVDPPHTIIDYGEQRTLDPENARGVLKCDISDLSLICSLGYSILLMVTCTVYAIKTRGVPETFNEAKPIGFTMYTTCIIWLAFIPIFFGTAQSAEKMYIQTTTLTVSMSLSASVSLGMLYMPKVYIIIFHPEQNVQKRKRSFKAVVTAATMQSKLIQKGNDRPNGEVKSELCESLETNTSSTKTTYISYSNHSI

| SMILES | z-score |
| --- | --- |
| COc1ccc([N+](=O)[O-])cc1NC(=O)Cc1ccc(C)cc1 | -1.2 |
| Cc1cc(C(=O)NCC(=O)O)c(C)o1 | 0.711 |
| CCOc1ccc(CNc2ccc3c(c2)ncn3C)cc1 | -0.34 |
| O=C(Nc1ccc(OC(F)F)c(Cl)c1)c1cccc(OC(F)F)c1 | -0.59 |
| CCOc1cc(/C=N/NC(=O)CN(CCc2ccccc2)S(=O)(=O)c2ccc(NC(C)=O)cc2)ccc1O | -0.033 |
| N#Cc1ccsc1NC(=O)CN1CCN(S(=O)(=O)c2ccc3ccccc3c2)CC1 | -0.12 |
| CCOC(=O)C(Oc1ccc2c(-c3ccccc3)cc(=O)oc2c1)c1ccccc1 (configuration not stated) | -0.0611 |
| CCOC(=O)N1CCN(C(=O)c2ccc3c(SCC(=O)O)c4c(nc3c2)CCC4)CC1 | -0.204 |
| O=[N+]([O-])c1ccc(Sc2ccccc2Cl)nc1 | -0.548 |
| O=[N+]([O-])c1ccc(N/N=C/c2ccccc2)c(F)c1 | -0.198 |
| O=c1cc(Cl)[nH]c(=O)n1CCNc1ncc(C(F)(F)F)cc1Cl | -0.316 |
| CC(C)(C)NC(=O)c1cnn(-c2ccccc2)c1NC(=O)c1ccccc1 | -0.209 |
| COC(=O)CSc1ccc(S(=O)(=O)N2CCOCC2)cc1[N+](=O)[O-] | -0.0155 |
| Cc1cccc(-n2nnnc2SC(C)C(=O)NCCC2=CCCCC2)c1 (configuration not stated) | -0.423 |
| O=C(C1CCCN1S(=O)(=O)c1cccc2cccnc12)N1CCN(c2ccccc2)CC1 (configuration not stated) | -0.0642 |
| CCOc1ccc(-c2nc3n(c(=O)c2C#N)CCCS3)cc1 | -0.183 |
| CC1(C)Cc2cccc(OCC(=O)Nc3cccnc3)c2O1 | 0.958 |
| CC1CCc2cc(F)ccc2N1C(=O)CCC(=O)O (configuration not stated) | 0.577 |
| O=C(Nc1cccc2ncccc12)C(Cl)(Cl)Cl | 0.562 |
| COc1ccccc1CNc1nc(S(=O)(=O)c2ccccc2)c(Cl)s1 | -0.0774 |
| CCSc1nc2cc(C(=O)OC)ccc2c(=O)n1CC | 0.836 |
| Nc1nc(SCc2c(Cl)cccc2Cl)n[nH]1 | 0.732 |
| COc1ccc(OC)c(/C=c2\sc3nc(-c4cccs4)nn3c2=O)c1 | -0.157 |
| CCOC(=O)N1CCN(C(=O)C2CCC(C(=O)N3CCN(C(=O)OCC)CC3)CC2)CC1 (configuration not stated) | -0.0877 |

| SMILES | z-score |
| --- | --- |
| CCOC(=O)COc1nc(N(C)C)nc(N(C)C)n1 | 0.741 |
| CN1C(=O)N(C)C2(c3ccccc3)Nn3c(s/c(=C/c4ccccc4)c3=O)=NC12c1ccccc1 (configuration not stated) | -0.306 |
| CC(=O)N1CCc2cc(S(=O)(=O)NC3CCCc4ccccc43)ccc21 (configuration not stated) | -0.27 |
| CCN(CC(=O)Nc1ccc2c(c1)OCCO2)C(=O)C1CCCCC1 | -0.124 |
| CCn1c(CNC(=O)c2ccccc2)nnc1SCC(=O)N1CCN(c2ccccc2)CC1 | -0.187 |
| CSCc1c(C(=O)NC2CCCc3ccccc32)oc2ccccc12 (configuration not stated) | 0.291 |
| O=C(CCc1ccccc1)NNC(=O)c1ccc(NC(=O)c2ccccc2)cc1 | 0.0748 |
| COc1cc(OC)c(NC(=O)Nc2ccc(OC)c(OC)c2)cc1Cl | -0.608 |
| COc1cc(C(=O)Nc2ccncc2)cc(OC)c1OC | -0.414 |
| Cn1c(=O)c2c(nc(NCCc3ccccc3)n2CC(=O)NCCc2ccccc2)n(C)c1=O | 0.112 |
| COc1ccc(CC(=O)Nc2cc(C)on2)cc1OC | 0.181 |
| O=C(Nc1cccnc1)C1(c2ccccc2)CCCC1 | -0.0707 |
| Cc1ccc(NC(=O)CSc2nnc(-c3cnccn3)n2Cc2ccco2)cc1 | 0.329 |
| O=C(O)Cn1nnn(-c2ccccc2)c1=S | 0.265 |
| O=C(CSc1nc2ccccc2[nH]1)NCCc1ccc(Cl)cc1 | 0.0542 |
| CCCCn1c(CNC(=O)Cc2ccccc2)nc2ccccc21 | -0.236 |
| Cc1ccc(CCN2CC(C(=O)NCc3cccnc3)CC2=O)cc1 (configuration not stated) | -0.0946 |
| CCSc1nc(N2CCOCC2)c2c(c1C#N)CCCC2 | -0.478 |
| CCCc1nc2ccccc2n1CCOC | -0.145 |
| Cc1ccc2cc(CN(C(=O)c3ccco3)c3ccccc3C)c(=O)[nH]c2c1 | -0.547 |
| O=C(Nc1nccs1)C1CCCN1S(=O)(=O)c1ccc(Cl)cc1 (configuration not stated) | 0.437 |
| Cc1ccc(S(=O)(=O)/N=C(\CN2CCOCC2)N2CCCC2)cc1 | 0.619 |
| CCc1ccc(N/C(SCc2cccc(F)c2)=C(/C#N)C(=O)NCc2ccco2)cc1 | 0.197 |
| COc1ccc(CNC(C)(C)C)cc1Cl | -0.08 |

| SMILES | z-score |
| --- | --- |
| COc1ccc(CCNC(=O)c2ccc(CN3CCOCC3)cc2)cc1 | -0.861 |
| O=C(CCN1CCC(c2ccccc2)C1)c1ccccc1 (configuration not stated) | -0.0799 |
| COc1ccccc1C(CCNS(=O)(=O)c1ccc(C)cc1)c1ccco1 (configuration not stated) | -0.194 |
| CC(C)(C)c1cc(S(=O)(=O)CCc2ccccn2)cc(C(C)(C)C)c1F | -0.107 |
| On1onc2c3cc(-c4ccccc4)nc3ccc21 | -0.0816 |
| CC1=C(C(=O)NCc2ccccc2)C(c2cccnc2)n2ncnc2N1 (configuration not stated) | 0.172 |
| Cc1cc(C(=O)NCc2ccc3c(c2)OCO3)n(-c2ccccc2)n1 | -1.31 |
| Cc1ccc(C(=O)NC(=S)Nc2ccc(Oc3ccc(Cl)cc3)cc2)cc1 | 0.157 |
| COc1ccccc1N1C(=O)CCC1(C#N)c1ccccc1 (configuration not stated) | -0.89 |
| N#Cc1cc([N+](=O)[O-])cnc1Nc1ccccc1 | -0.521 |
| Cc1cnc(C(=O)Nc2cccc(S(=O)(=O)N(C)C)c2)cn1 | -0.268 |
| Cc1cc(C=O)c(C)n1-c1cc(C(F)(F)F)ccc1N1CCOCC1 | 0.457 |
| O=C(Cn1nc(C(F)(F)F)c2c1CCCC2)NCc1ccco1 | 0.308 |
| Cc1ccc(-c2nc3ncccn3c2Nc2ccc3c(c2)OCO3)o1 | -0.257 |
| O=C(O)c1c2c(nc3ccc(S(=O)(=O)N4CCC(C(=O)N5CCCCC5)CC4)cc13)CCCC2 | 0.292 |
| CCOC(=O)Cn1c(CN2CCOCC2)nc2c1c(=O)[nH]c(=O)n2C | 0.345 |
| CN(C)c1c([N+](=O)[O-])cc2[nH]c(=O)[nH]c2c1[N+](=O)[O-] | -1.08 |
| O=C(OCn1ncc(Cl)c(Cl)c1=O)c1cccc(C(F)(F)F)c1 | -1 |
| OC(COCc1ccccc1)Cn1cnc2ccccc21 (configuration not stated) | -0.369 |
| Cc1ccc(C(=O)c2ccccc2C(=O)OCC(=O)NCCc2ccccc2)cc1 | -0.0141 |
| Cc1cc(C(=O)NCC(c2ccco2)N(C)C)no1 (configuration not stated) | -0.388 |
| O=C(c1ccc(COc2ccc(F)cc2)o1)n1cc(Br)cn1 | -1.23 |
| COc1ccc(/C=N/NC(=O)CCCOc2ccc(Cl)cc2Cl)cc1[N+](=O)[O-] | 0.39 |
| COc1ccc(CCn2c(N)c(C(=O)NCc3ccco3)c3nc4ccccc4nc32)cc1OC | 0.167 |

From PubChem BioAssay AID488969 (Vanderbilt High Throughput Screening Facility, 2010)
